# Hit rate of the full screen: of about 210,000 compounds, about 730 (0.35%) were called active. The shares of active, inactive and inconclusive entries below differ from those in the screen. Calls follow the shape of the dose curve; as a rule, active = well fitted inhibition curve with a large enough effect; inconclusive = small, poorly fitted or top-dose-only effect; inactive = no such curve, though single readings can be large or run the other way. Potencies beside an inconclusive call are fits to weak or partial responses and may not hold up.
# Assay: qHTS Assay for Identifying the Cell-Membrane Permeable IMPase Inhibitors: Potentiation with Lithium; also: nearly all actives have a fitted effect of over 50% in size
# Conditions: CHO-M1 cells, IP1 TR-FRET (IP-One), carbachol + lithium; series mostly up to 59.4 µM
# In short: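 CHO cells stably expressing M1 receptor (2000/well, cultured 16–30 h) treated 30 min at 37C with compound plus low lithium. Cytosolic IP1 by TR-FRET (665/620 ratio and 620 channel) after 10 min lysis; AC50 by Hill fit.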
# Potency is read from the fitted curve at half-maximal effect.
row,SMILES,Potency
1,O=C(O)[C@H]1[C@H]2C[C@H]3c4[nH]c5ccccc5c4CCN3C[C@@H]2CC[C@@H]1O,inactive
2,COC(=O)C1CSc2[nH]c(=O)sc2C1c1ccc(O)c(OC)c1 (stereo unspecified),inactive
3,CCN(CC)C(=O)c1sc2[nH]c(=S)n(-c3ccccc3)c(=O)c2c1C,"inconclusive: 14.1 µM [inhibitor, partial curve]"
4,CCSC1=C(C#N)C(c2ccccc2Cl)CC(=O)N1 (stereo unspecified),inactive
5,O=C1CC(c2ccccc2F)c2cc3c(cc2N1)CCC3 (stereo unspecified),inactive
6,CN(C(=O)COC(=O)CNC(=O)c1ccc(Cl)cc1Cl)c1ccccc1,inactive
7,CC(C)Cn1c(SCC(=O)Nc2ncccn2)nc2ccccc21,inactive
8,CC1Cc2cc(/C(O)=C3/C(=O)C(=O)N(Cc4ccco4)C3c3cccs3)ccc2O1 (stereo unspecified),"inconclusive: 14.1 µM [inhibitor, single point]"
9,Cc1cccc2cc(COC(=O)c3ccccc3)c(=O)[nH]c12,"inconclusive: 20 µM [inhibitor, single point]"
10,Cc1ccc(OCC(=O)Nc2ccc(Cl)cc2)c(-n2nc3ccccc3n2)c1,"inconclusive: 28.2 µM [inhibitor, single point]"
11,O=C(Nc1ccccc1-c1nc2ccccc2s1)C1=COCCO1,"inconclusive: 28.2 µM [inhibitor, single point]"
12,N#Cc1c(N)nc2c(c1-c1ccc(Br)s1)CCCC2,"inconclusive: 31.6 µM [inhibitor, single point]"
13,COc1ccc(-c2cc(C(F)(F)F)n3nc(C(=O)NCCCn4ccnc4)cc3n2)cc1,"inconclusive: 28.2 µM [inhibitor, single point]"
14,CC(C)NC(=O)CSc1nc(-c2cccs2)cc(-c2ccccc2)c1C#N,"inconclusive: 12.6 µM [inhibitor, single point]"
15,CCC(=O)NC(=S)Nc1ccc(NC(=O)c2ccc(OC)cc2)cc1,"inconclusive: 28.2 µM [inhibitor, single point]"
16,COc1cccc2c(=O)n(CC(=O)Nc3ccc(F)cc3)ccc12,"inconclusive: 20 µM [inhibitor, single point]"
17,CC(=O)Nc1ccc(Nc2ncnc3c2cnn3-c2ccccc2)cc1,"inconclusive: 1.58 µM [inhibitor, full curve, poor fit]"
18,Cc1ccc(S(=O)(=O)NCc2c(-c3ccccc3)c3cc(Cl)ccc3[nH]c2=O)cc1,"inconclusive: 28.2 µM [inhibitor, single point]"
19,CC/C(=N\Nc1ccccc1[N+](=O)[O-])c1ccc(O)cc1,inactive
20,CCOc1ccc(NC(=S)N(CCN2CCOCC2)Cc2cc3cc4c(cc3[nH]c2=O)OCO4)cc1,"inconclusive: 28.2 µM [inhibitor, single point]"
21,CCOC(=O)c1ccc(N2CCN(c3ccc(F)cc3)CC2)c(NC(=O)Nc2cccc(OC)c2)c1,"inconclusive: 28.2 µM [inhibitor, single point]"
22,Cc1ccc2c(CN3CCCc4ccccc43)cc(=O)oc2c1C,"inconclusive: 22.4 µM [inhibitor, single point]"
23,N#CCC(N)=C(C#N)C#N,"inconclusive: 11.2 µM [inhibitor, partial curve]"

row,SMILES,Potency
1,O=C(COC(=O)c1sc2ccccc2c1Cl)Nc1ncc(Cl)cc1Cl,"inconclusive: 22.4 µM [inhibitor, single point]"
2,COc1cc(/C=C/C(=O)Nc2ccc(C)cc2)cc(OC)c1OC,inactive
3,O=C(NCCCCNC(=O)c1ccc(Br)s1)c1ccc(Br)s1,"inconclusive: 28.2 µM [inhibitor, single point]"
4,CCCCOCCOCCOCc1cc2c(cc1CCC)OCO2,inactive
5,COC(=O)C1(CC(C)C)C=C2C(=C(c3ccccc3)C(=O)C2C)CN1 (stereo unspecified),inactive
6,COc1ccc(-c2ccnc3nc(-n4cccc4)nn23)cc1,"inconclusive: 12.6 µM [inhibitor, single point]"
7,COCCN(C(=O)Cc1cccs1)C(C(=O)NCc1ccc(OC)cc1)c1ccc(C)cc1 (stereo unspecified),inactive
8,CCNc1ncc2nc(-c3ccc(Cl)cc3)c(=O)n(Cc3cccc(OC)c3)c2n1,"inconclusive: 5.01 µM [inhibitor, full curve]"
9,CC(C)(C)c1nnc2sc(SCC(=O)c3ccc4c(c3)OCCO4)nn2c1=O,"inconclusive: 28.2 µM [inhibitor, single point]"
10,COc1ccc(-n2nc(C(=O)NCc3ccco3)c3c4ccccc4n(C)c3c2=O)cc1,"inconclusive: 25.1 µM [inhibitor, single point]"
11,Cn1c(=O)c(-c2ccc(Cl)cc2)nc2cnc(Oc3ccccc3)nc21,active: 11.2 µM
12,Cc1cccc([N+](=O)[O-])c1C,inactive
13,CCCC(c1nnnn1Cc1ccco1)N1CCN(C2CCCC2)CC1 (stereo unspecified),inactive
14,COc1cccc(NC(=O)CSc2nc3ccccc3c3nc4ccccc4n23)c1,"inconclusive: 22.4 µM [inhibitor, single point]"
15,Cc1ccc(C(=O)CSc2nnc(-c3ccccc3)n2-c2ccccc2)o1,inactive
16,O=C(CSc1nc2ccccc2s1)N/N=C/c1ccc(C(=O)O)cc1,inactive
17,Brc1ccc(-c2nnc3sc(CNC4CCCC4)cn23)cc1,"inconclusive: 2.24 µM [inhibitor, full curve]"
18,COc1cccc(/C=N/NC(=O)C[n+]2ccccc2)c1O,inactive
19,CC(=O)Nc1ccc(C(=O)CSc2nnc(Cc3ccccc3)o2)cc1,"inconclusive: 12.6 µM [inhibitor, single point]"
20,CCOc1ccc(N=c2scc(-c3ccc(OC)cc3)n2CCO)cc1,"inconclusive: 28.2 µM [inhibitor, single point]"
21,O=C(CSc1nnc(-c2ccccc2)o1)c1nnc(-c2ccccc2)o1,"inconclusive: 25.1 µM [inhibitor, partial curve]"
22,CCOC1=NN(c2ccc(Cl)cc2)C(=O)/C1=C\N(C)C,"inconclusive: 2.82 µM [inhibitor, partial curve]"
23,COC1OC(CO)C(OC2OC(C(=O)O)C(OC3OC(COS(=O)(=O)O)C(OC4OC(C(=O)O)C(OC5OC(CO)C(OC6OC(C(=O)O)C(OC7OC(COS(=O)(=O)O)C(OC8OC(C(=O)O)=C[C@H](O)C8OS(=O)(=O)O)C(O)C7NC(C)=O)[C@@H](O)C6O)C(O)C5NC(C)=O)[C@@H](O)C4O)C(O)C3NC(C)=O)[C@@H](O)C2O)C(O)C1NC(C)=O (stereo partly specified),inactive
